Experimental data: the supplement of paper PMC10126150
Values marked as one replicate rest on one cluster of the flow cell; about a third of the high ones do not repeat.
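Note: ATP exposure 15 min at 22 °C before imaging.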

These sequences were tested on ATP (assay: switch fluorescence ratio, 500 uM ATP over buffer (Cy3 cluster intensity, sum of 5 cycles each) (fold (ratio)); higher = stronger signal-on switching upon ATP binding; sequences stand for … in TCGTCGGCAGCGTCAGATGTGTATAAGAGACAGTTTTTTTTTTTTTTTTTTTTTTTTT…TC). Conditions: aptamer strand: ATP DNA aptamer (quencher-CACCTGGGGGAGTATTGCGGAGGAAGG + anchor), 100 nM annealed; ATP concentration: 500 uM; one replicate.
In short: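 Switching-strand clusters labelled with Cy3 on a modified Illumina MiSeq flow-cell were annealed to 100 nM quencher-labelled ATP aptamer, imaged in selection buffer, and re-imaged after 15 min with 500 uM ATP at 22 °C. This was done over five cycles with NaOH stripping and re-annealing in between. The fluorescence ratio is summed target-cycle over summed buffer-cycle Cy3 intensity per cluster, averaged per switch-domain sequence, excluding clusters outside 100-1000 RFU.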
For GCCAGGGTAG, the switch fluorescence ratio was 1.03. For GCCAGGTAAA, the switch fluorescence ratio was 1.03. Work on GCCAGTCCGC yielded a switch fluorescence ratio of 1.1. GCCATAAGCG gave a switch fluorescence ratio of 1. In the case of GCCATAGAGT, the switch fluorescence ratio is reported as 0.987. GCCATAGCGT was tested, and the switch fluorescence ratio was 1.01. For GCCATATGA, the switch fluorescence ratio was 1.04. GCCATATT was tested, and the switch fluorescence ratio was 0.975. In the case of GCCATCCCAG, the switch fluorescence ratio is reported as 1.04. With GCCATGAAGT the switch fluorescence ratio was 1.02. With GCCATGTACG the switch fluorescence ratio was 1.04. For GCCATTAACA, the switch fluorescence ratio was 1.02. GCCATTCTG gave a switch fluorescence ratio of 0.938. Sequence GCCATTTCAC has a switch fluorescence ratio of 0.988. GCCATTTTCG showed a switch fluorescence ratio of 0.997. In the case of GCCCACATTC, the switch fluorescence ratio is reported as 1.05. Work on GCCCACGTTT yielded a switch fluorescence ratio of 1. In the case of GCCCACTACT, the switch fluorescence ratio is reported as 1.07. In the case of GCCCCCGTCC, the switch fluorescence ratio is reported as 1.22. Work on GCCCCTACGA yielded a switch fluorescence ratio of 1.07. GCCCGAAGTG gave a switch fluorescence ratio of 1.02. Sequence GCCCGACCGC has a switch fluorescence ratio of 1.95. GCCCGATACT was tested, and the switch fluorescence ratio was 1.38. GCCCGATGCT showed a switch fluorescence ratio of 1.01. With GCCCGATGGT the switch fluorescence ratio was 1.03. GCCCGCATTT showed a switch fluorescence ratio of 1.9. Work on GCCCGCGCCC yielded a switch fluorescence ratio of 1.23. Sequence GCCCGGAGAA has a switch fluorescence ratio of 1.07. Sequence GCCCGGGAGG has a switch fluorescence ratio of 0.972. In the case of GCCCGGTGGC, the switch fluorescence ratio is reported as 1.1. GCCCGTAGTC showed a switch fluorescence ratio of 1.05. With GCCCGTGTTA the switch fluorescence ratio was 0.974. For GCCCTAAGG, the switch fluorescence ratio was 1.02. Work on GCCCTAATAA yielded a switch fluorescence ratio of 1.02. With GCCCTATCG the switch fluorescence ratio was 1.02. For GCCCTCCGTA, the switch fluorescence ratio was 1.95. GCCCTCGAAG gave a switch fluorescence ratio of 0.997. In the case of GCCCTCGGGC, the switch fluorescence ratio is reported as 1.07. Sequence GCCCTGCACC has a switch fluorescence ratio of 1.05. With GCCGAAACTT the switch fluorescence ratio was 1.03. For GCCGAAGGGA, the switch fluorescence ratio was 1.46. GCCGAAGTCT gave a switch fluorescence ratio of 1.01. GCCGAATACC was tested, and the switch fluorescence ratio was 1.47. With GCCGACAGCA the switch fluorescence ratio was 1.21. GCCGACTAAC showed a switch fluorescence ratio of 1.07. Sequence GCCGACTTGT has a switch fluorescence ratio of 1.04. Sequence GCCGATAATA has a switch fluorescence ratio of 1.04. In the case of GCCGCATGCT, the switch fluorescence ratio is reported as 1.28. GCCGCCAATG gave a switch fluorescence ratio of 1.08. GCCGCCCTCT was tested, and the switch fluorescence ratio was 1.06. GCCGCGGAA showed a switch fluorescence ratio of 1.04. GCCGCGGTAG showed a switch fluorescence ratio of 1.56. In the case of GCCGCGTCAA, the switch fluorescence ratio is reported as 1.04. With GCCGCTTCGG the switch fluorescence ratio was 1.03. GCCGGAAGAC gave a switch fluorescence ratio of 4.29. For GCCGGATCTG, the switch fluorescence ratio was 1.38. Sequence GCCGGCCTAC has a switch fluorescence ratio of 1.03. In the case of GCCGGCTTTT, the switch fluorescence ratio is reported as 0.994. Work on GCCGGGATAC yielded a switch fluorescence ratio of 4.08. GCCGGGTGCT was tested, and the switch fluorescence ratio was 1. GCCGGTCTGG gave a switch fluorescence ratio of 1. For GCCGTACAGA, the switch fluorescence ratio was 0.996. GCCGTAGCAT was tested, and the switch fluorescence ratio was 1.04. GCCGTCAGTA was tested, and the switch fluorescence ratio was 1.03. Sequence GCCGTCATGG has a switch fluorescence ratio of 1.01. Work on GCCGTGGGAA yielded a switch fluorescence ratio of 1. In the case of GCCTAAGATT, the switch fluorescence ratio is reported as 0.917. Sequence GCCTAAGGAG has a switch fluorescence ratio of 0.982. GCCTACGGTC showed a switch fluorescence ratio of 1.04. For GCCTAGGCCT, the switch fluorescence ratio was 0.979. With GCCTAGGGTC the switch fluorescence ratio was 0.975. GCCTAGTTTT showed a switch fluorescence ratio of 1. Sequence GCCTATGGCT has a switch fluorescence ratio of 0.999. In the case of GCCTCAGTAG, the switch fluorescence ratio is reported as 1.08. GCCTCGAGGA showed a switch fluorescence ratio of 1.03. GCCTCGGACA gave a switch fluorescence ratio of 1.04. For GCCTCGGTAA, the switch fluorescence ratio was 1.46. Work on GCCTCGGTGC yielded a switch fluorescence ratio of 1.03. GCCTCGTAAC showed a switch fluorescence ratio of 1.17. Work on GCCTCTACAC yielded a switch fluorescence ratio of 1.08. In the case of GCCTCTAGTT, the switch fluorescence ratio is reported as 1.01. For GCCTGAAATA, the switch fluorescence ratio was 1.02. Work on GCCTGAGCGG yielded a switch fluorescence ratio of 1. With GCCTGGCATG the switch fluorescence ratio was 0.992. For GCCTGGGAGG, the switch fluorescence ratio was 0.998.
